# About 6,400 (1.6%) of roughly 410,000 compounds were called active. Inconclusive means that the source gave no clear call. Such entries were picked first, then a sample of the others. Calls follow the shape of the dose curve; as a rule, active = well fitted inhibition curve with a large enough effect; inconclusive = small, poorly fitted or top-dose-only effect; inactive = no such curve, though single readings can be large or run the other way. No potency is given beside an inconclusive call; the fits are too rough.
# Target: Glucagon-like peptide 1 receptor (Homo sapiens) (UniProt P43220)
# Test: qHTS of GLP-1 Receptor Inverse Agonists (Inhibition Mode); also: nearly all actives have a fitted effect of over 55% in size
# Settings: HEK293 GLP-1R CRE-luciferase, luminescence, 24 h, GLP-1R form is constitutively active; activity change, negative = inhibition: at 38.3 µM (top of the series) unless noted
# In short: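 Readout was luciferase luminescence, measured 12 min after detection reagent at room temperature. Beforehand, GLP-1R reporter HEK293 cells had sat 12 h, then received compounds for 24 hr at 37 deg C.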
# % is scaled to controls: 0 for no effect and ±100 for the full control effect; potency is read from the fitted curve at half-maximal effect; tags tell the direction and shape of the fitted curve.
# Chain of UniProt P43220 (P43220 whole entry, looked up): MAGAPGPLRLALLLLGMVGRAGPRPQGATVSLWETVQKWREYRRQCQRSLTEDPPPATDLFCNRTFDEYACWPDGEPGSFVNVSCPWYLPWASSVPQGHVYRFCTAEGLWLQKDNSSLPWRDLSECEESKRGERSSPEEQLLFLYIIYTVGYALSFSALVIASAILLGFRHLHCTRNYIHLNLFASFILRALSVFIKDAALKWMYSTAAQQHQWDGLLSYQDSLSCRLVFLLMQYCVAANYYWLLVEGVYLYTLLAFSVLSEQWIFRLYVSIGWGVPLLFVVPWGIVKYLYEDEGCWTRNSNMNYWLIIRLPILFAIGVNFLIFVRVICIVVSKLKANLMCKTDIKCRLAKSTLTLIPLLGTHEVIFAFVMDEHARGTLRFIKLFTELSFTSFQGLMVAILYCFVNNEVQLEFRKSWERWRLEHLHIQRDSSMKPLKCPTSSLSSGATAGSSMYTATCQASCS
Structure (SMILES),"activity change, negative = inhibition",Potency
CC1CN(c2nc(Nc3ccccc3)nc(N)c2[N+](=O)[O-])CC(C)O1 (stereo not drawn),inactive: 11.6%,–
CCC(C)(C)C1CCC2(CC1)NC(=O)N(CC(=O)NC(C)CCc1ccccc1)C2=O (stereo not drawn),–,active: 3.55 µM
C/C(CC(=O)NCc1ccccc1)=N\NC(N)=S,–,"inconclusive [inhibitor, single point]"
C=CCc1c(C)nc(-c2ccccc2)nc1Nc1ccc(O)cc1,–,"inconclusive [inhibitor, single point]"
CC(=NNC1=NCCN1)c1cn(C2=NCCN2)nc1C,inactive: 23.3%,–
CCOC(=O)c1cc(C)n(CC2CCC(C(=O)Nc3ccccc3OC)CC2)c1C (stereo not drawn),–,"inconclusive [inhibitor, single point]"
CSc1ncc(C(=O)Nc2ccc(C)c(Cl)c2)c(-c2ccccc2)n1,–,"inconclusive [inhibitor, full curve, poor fit]"
CCN(CC)CCn1c(NC(=O)c2ccccc2O)nc2ccccc21,–,"inconclusive [inhibitor, partial curve, poor fit]"
COc1ccccc1CC1(C)C(=O)Nc2c(Cl)cccc21 (stereo not drawn),–,"inconclusive [inhibitor, single point]"
CCN(Cc1cccc(OC)c1)CC1CCCN(CCc2cccc(OC)c2)C1 (stereo not drawn),–,"inconclusive [inhibitor, partial curve, poor fit]"
COc1cccc(NC(=O)NC2CCCc3ccccc32)c1 (stereo not drawn),–,"inconclusive [inhibitor, partial curve, poor fit]"
O=[N+]([O-])c1ccc(CS(=O)c2ccccc2)cc1 (stereo not drawn),inactive: 8.18%,–
Cc1cccnc1CC(C)NC(=O)c1cc(COc2cncc(Cl)c2)on1 (stereo not drawn),–,"inconclusive [inhibitor, single point]"
O=C1N(Cc2ccccc2Cl)c2ccccc2C1(O)c1c[nH]c2ccccc12 (stereo not drawn),–,"inconclusive [inhibitor, single point]"
CC1=C(C(=O)OCC2CCCCC2)C(c2ccc(Cl)cc2)CC(=O)N1 (stereo not drawn),–,"inconclusive [inhibitor, single point]"
CCOCCOC(=O)c1ccc(NC(=O)c2cc(OC)c(OC)c(OC)c2Br)cc1,–,"inconclusive [inhibitor, single point]"
Cc1ccc(C)c(N(CC(=O)Nc2ccc(-c3nc4ccc(C)cc4s3)cc2)S(C)(=O)=O)c1,–,"inconclusive [inhibitor, full curve]"
Cc1cc2nc(-c3cccnc3SCC(=O)NCc3ccco3)[nH]c2cc1C,inactive: -21.4%,–
NC(=O)c1ccc(NC(=O)COC(=O)c2c3c(nc4ccccc24)/C(=C\c2ccc4c(c2)OCO4)CCC3)cc1,–,"inconclusive [inhibitor, single point]"
CN1CCC(=O)N([C@H](CSc2ccc(Br)cc2)Cc2ccccc2)CC1,–,"inconclusive [inhibitor, full curve, poor fit]"
COc1ccc(OC)c(C2CC(c3ccccc3)=NN2C(=S)Nc2ccccc2)c1 (stereo not drawn),inactive: -27.1%,–

Structure (SMILES),"activity change, negative = inhibition",Potency
Cc1ccc(-n2c(=O)c3c4c(sc3n(Cc3cc(=O)n5ccccc5n3)c2=O)CCC4)cc1C,–,inactive
Cc1c(C(=O)c2ccccc2)oc2ccc3ccccc3c12,inactive: 4.31%,–
Cc1nc(Oc2ccc(S(=O)(=O)N3CCOCC3)cc2Cl)c2c3c(sc2n1)CCCC3,–,"inconclusive [inhibitor, partial curve, poor fit]"
S=C(NCc1ccccc1)NCc1ccccc1Cl,–,"inconclusive [inhibitor, partial curve, poor fit]"
CC(C)(CN1CCc2ccccc2C1)NS(=O)(=O)c1ccccc1,–,"inconclusive [inhibitor, single point]"
CCN(CC)CCCNC(=O)c1nn(-c2ccccc2OC)c(=O)c2ccccc12,–,"inconclusive [inhibitor, partial curve]"
Cc1ccc(CNC(=O)CSCc2ccccc2)cc1,–,"inconclusive [inhibitor, single point]"
Cc1nonc1OCCN1CCN(c2ccccc2[N+](=O)[O-])CC1,–,"inconclusive [inhibitor, partial curve]"
Cc1c(C(=O)OC(C)C(=O)N(C)Cc2ccccc2)oc2ccccc12 (stereo not drawn),–,"inconclusive [inhibitor, partial curve]"
Cc1ccc(CN(Cc2ccco2)C(=O)c2oc3cc(Br)ccc3c2C)cc1,–,"inconclusive [inhibitor, single point]"
N#Cc1c(/N=C/N2CCCC2)oc(-c2ccccc2)c1-c1ccccc1,–,"inconclusive [inhibitor, full curve, poor fit]"
Cc1ccc(NC(=S)NCc2ccc3c(c2)OCO3)cc1C,–,"inconclusive [inhibitor, single point]"
CCOc1ccc(NC(=O)CSc2oc(-c3ccc(F)cc3)nc2S(=O)(=O)c2ccc(C)cc2)cc1,inactive: 6.54%,–
Cc1cc2c3c(c1)C1(C(=O)N3C(C)(C)CC2C)C(C#N)=C(N)Oc2n[nH]c(C)c21 (stereo not drawn),–,"inconclusive [inhibitor, single point]"
COc1cc(O)c(C(CCN2CCCC(C)C2)c2ccc3c(c2)OCO3)c(OC)c1 (stereo not drawn),–,"inconclusive [inhibitor, single point]"
Cc1ccc(NC(=O)C(=O)Nc2ccccn2)cc1,–,"inconclusive [inhibitor, partial curve, poor fit]"
Cc1cc(C)cc(NC(=S)N(CCN(C)C)Cc2cccs2)c1,–,"inconclusive [inhibitor, partial curve, poor fit]"
Cn1c(CNC(=O)Nc2cccc(Cl)c2)nnc1SCc1ccccc1,–,"inconclusive [inhibitor, single point]"
COC(=O)[C@@]1(Cc2ccc(F)cc2)[C@H]2c3cc(C(=O)N(C)C)n(CCCNc4ncc(C(F)(F)F)cc4Cl)c3C[C@H]2CN1C(=O)c1ccccc1,–,"inconclusive [inhibitor, single point]"
CCc1c(C)sc2nc3c(C(=O)N4CCOCC4)cc(C(=O)c4cc(F)ccc4O)cn3c(=O)c12,–,"inconclusive [inhibitor, partial curve, poor fit]"
CCN1CCN(c2ccc(S(=O)(=O)N3CCCCC3)cc2NC(=O)c2sccc2C)CC1,–,"inconclusive [inhibitor, single point]"

Structure (SMILES),"activity change, negative = inhibition",Potency
COc1ccc(OC)c(NC(=O)CN2C(=O)CC(C)Sc3ccccc32)c1 (stereo not drawn),inactive: 19.1%,–
O=C1Nc2ccc(Br)cc2C1(O)c1ccccc1 (stereo not drawn),–,"inconclusive [inhibitor, partial curve, poor fit]"
Cc1cccc(NC2=C/C(=N/S(=O)(=O)c3cccs3)c3ccccc3C2=O)c1,inactive: -0.43%,–
CC1=C(C#N)CCC(=O)N1Cc1c(C)cc(C)cc1C,–,"inconclusive [inhibitor, partial curve, poor fit]"
CSCCC(C(=O)OCC(=O)c1ccc(C)c(C)c1)N1C(=O)c2cc(Cl)c(Cl)cc2C1=O (stereo not drawn),–,"inconclusive [inhibitor, partial curve, poor fit]"
Cc1cc(C)nc(Nc2nc(C(N)Cc3ccc(C(F)(F)F)cc3)cs2)n1 (stereo not drawn),–,"inconclusive [inhibitor, single point]"
C[C@H]1CN(c2ccccc2)C(=O)[C@@H]1CC(=O)Nc1ccc(Br)cc1,–,"inconclusive [inhibitor, partial curve]"
CCC(C)NC(=O)/C=C/c1cccs1 (stereo not drawn),inactive: 35%,–
COC(=O)C1=CN(c2c(C)cc(C)cc2C)C(N)=C(C#N)C1c1cccc(F)c1 (stereo not drawn),–,"inconclusive [inhibitor, single point]"
CC(C)(C)C(=O)CSc1ccc(S(=O)(=O)N2CCN(Cc3ccccc3)CC2)cn1,–,"inconclusive [inhibitor, single point]"
C#CCN1C=CC(=O)[C@@H](OC(=O)Nc2ccc(Cl)cc2)[C@H]1c1ccccc1Br,–,"inconclusive [inhibitor, single point]"
CC1(C(=O)NCc2ccccc2Br)CCN1C(=O)Cc1ccc(-c2ccccc2)cc1 (stereo not drawn),–,"inconclusive [inhibitor, partial curve, poor fit]"
Cc1ccc(-c2ccc(=O)n(Cc3c(F)cccc3Cl)n2)cc1,inconclusive: -48.9% [inhibitor],–
COc1cccc(-n2c(SCC(N)=O)nc3c([nH]c4ccccc43)c2=O)c1,–,"inconclusive [inhibitor, partial curve, poor fit]"
COc1ccc2c(c1)c(=O)c(S(=O)(=O)c1ccccc1)cn2CC(=O)Nc1ccc(C)c(Cl)c1,–,"inconclusive [inhibitor, partial curve]"
COc1ccc(NC(=O)CN(C)C(=O)c2cccc(NS(=O)(=O)c3ccc(Br)cc3)c2)cc1,–,"inconclusive [inhibitor, partial curve]"
COc1ccc(N(CC(=O)N2CCN(c3ccc(Cl)cc3)CC2)S(=O)(=O)c2c(C)n[nH]c2C)cc1,–,active: 11.2 µM
COc1ccc(-c2cc(C)nc(SCC(=O)c3cccc([N+](=O)[O-])c3)n2)cc1,inactive: -0.514%,–
CCOC(=O)C1(CCOc2ccccc2)CCN(Cc2cc(OC)cc(OC)c2)CC1,–,active: 10 µM
OCC1CCCCN1CC(O)COC(c1ccc(F)cc1)c1ccc(F)cc1 (stereo not drawn),–,"inconclusive [inhibitor, single point]"
COc1ccc(CCN(C)C(=O)Cc2ccc(-c3ccccc3)cc2)cc1OC,–,"inconclusive [inhibitor, single point]"
